Assay results reported in PubChem BioAssay AID504845 (National Center for Advancing Translational Sciences (NCATS), 2011).
Values joined by “and” are separate entries in the source; they are usually repeats but may differ in a detail not shown here. Equal values may be shown once. The whole screen tested about 390,000 compounds, of which about 150 (0.038%) were called active. The inconclusive results got no clear call from the source; some entries with a clear call stand among them for comparison. Calls follow the shape of the dose curve; as a rule, active = well fitted inhibition curve with a large enough effect; inconclusive = small, poorly fitted or top-dose-only effect; inactive = no such curve, though single readings can be large or run the other way. Where the call is inconclusive, the potency comes from a doubtful curve fit.

These compounds were tested against Regulator of G-protein signaling 4 (Homo sapiens) (UniProt P49798) (assay: Inhibitors of Regulator of G Protein Signaling (RGS) 4: qHTS). Conditions: Transcreener GDP fluorescence polarization, RGS4-accelerated GTP hydrolysis; series mostly up to 114 µM.
Summary of the method: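 MLSMR compounds (23 nl, pin-transferred) preincubated 10 min at room temperature with a 500nM (2x) first reagent, then RGS4 at 900nM (2x) plus Transcreener GDP mix added; fluorescence polarization (620/688 nm) read before and after 90 min at 30 °C.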
Also: nearly all actives have a fitted effect of over 75% in size.
Potency is read from the fitted curve at half-maximal effect; tags tell the direction and shape of the fitted curve.

UniProt P49798, sequence (P49798 whole entry, looked up): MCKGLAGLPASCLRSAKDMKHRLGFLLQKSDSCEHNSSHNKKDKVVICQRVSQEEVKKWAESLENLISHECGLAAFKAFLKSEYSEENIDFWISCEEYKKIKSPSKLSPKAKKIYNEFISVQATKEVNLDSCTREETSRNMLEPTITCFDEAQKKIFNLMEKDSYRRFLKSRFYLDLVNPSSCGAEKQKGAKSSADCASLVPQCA

| SMILES | Potency |
| --- | --- |
| CC(N)Cc1c[nH]c2ccc(OCc3cccs3)cc12 (configuration not stated) | inconclusive: 18.9 µM [inhibitor, single point] |
| Cc1cccc(N/N=C/c2c(O)[nH]c(=S)[nH]c2=O)c1 | inconclusive: 79.4 µM [inhibitor, partial curve, poor fit] |
| NC(=O)c1ccc(OCC(O)CN2CC=C(c3ccc(F)cc3)CC2)cc1 (configuration not stated) | inactive |
| CN[C@@H]1C[C@@]2(C)O[C@@H]([C@@H]1OC)n1c3ccccc3c3c4c(c5c6ccccc6n2c5c31)C(=O)NC4 | inconclusive: 0.377 µM [inhibitor, full curve, poor fit] |
| Cc1nn(Cc2ccccc2)c(C)c1C=C1C(=O)NC(=O)NC1=O | inconclusive: 50.1 µM [inhibitor, partial curve, poor fit] |
| COc1ccc(N2C(=O)/C(=C/c3ccco3)C(=O)NC2=S)cc1 | inconclusive: 39.8 µM [inhibitor, full curve, poor fit] |
| C[N+](C)(C)CC#CCN1CCCC1=O | inconclusive: 26.7 µM [inhibitor, partial curve, poor fit] |
| COC(=O)c1nc(-c2ccc3c(n2)C(=O)C(N)=C(OC)C3=O)c(N)c(-c2ccc(OC)c(OC)c2O)c1C | inconclusive: 50.1 µM [inhibitor, partial curve, poor fit] |
| CCCCCn1c(=O)c(C(=O)Nc2cnccn2)c(O)c2ccccc21 | inconclusive: 56.2 µM [inhibitor, partial curve, poor fit] |
| O=C1NC(=O)N(c2ccccc2)C(=O)/C1=C/c1ccc(Sc2ccccc2)o1 | inconclusive: 20 µM [inhibitor, full curve, poor fit] |
| COc1ccc(/C=C2/C(=O)NC(=O)N(c3ccc(C)c(C)c3)C2=O)cc1CN1C(=O)c2ccccc2C1=O | inconclusive: 17.8 µM [inhibitor, full curve, poor fit] |
| CN1CCN(c2ccc(N)cc2Cl)CC1 | inconclusive: 31.6 µM [inhibitor, full curve, poor fit] |
| CCCCCNc1c(C(=O)OCC)c(=O)[nH]c2ccccc12 | inconclusive: 89.1 µM [inhibitor, partial curve, poor fit] |
| O=C1NC(=O)N(Cc2ccc(F)cc2)C(=O)/C1=C\c1ccoc1 | inconclusive: 20 µM [inhibitor, full curve, poor fit] |
| C=CCN1C(=O)NC(=O)/C(=C/C=C/c2ccccc2)C1=O | inconclusive: 79.4 µM [inhibitor, partial curve, poor fit] |
| COc1cccc(N2C(=O)/C(=C/c3ccc(C)o3)C(=O)NC2=S)c1 | inconclusive: 35.5 µM [inhibitor, full curve, poor fit] |
| Cc1ccc(-n2c(O)c(C=NCc3ccco3)c(=O)[nH]c2=S)cc1C | inconclusive: 50.1 µM [inhibitor, partial curve, poor fit] |
| COc1ccc(Cn2c(O)c(/C=N/NC(=O)c3ccccc3)c(=O)[nH]c2=O)cc1 | inconclusive: 89.1 µM [inhibitor, single point] |
| COC(=O)OCC12CCC(O1)C1(C)C(=O)OCC21 (configuration not stated) | inconclusive: 50.1 µM [inhibitor, partial curve, poor fit] |

| SMILES | Potency |
| --- | --- |
| C[N+]1(C)CCN(c2ccccc2)CC1 | inconclusive: 37.7 µM [inhibitor, single point] |
| CCC(C)N1C(=O)/C(=C/c2ccc3c(c2)CCN3CCCCl)C(=O)NC1=S (configuration not stated) | inconclusive: 31.6 µM [inhibitor, partial curve, poor fit] |
| Nc1c(C(=O)NC2CCCC2)c2nc3ccccc3nc2n1CC1CCCO1 (configuration not stated) | inactive |
| O=C(c1ccc(N2CC3CC(C2)c2cccc(=O)n2C3)c([N+](=O)[O-])c1)N1CCCC1 (configuration not stated) | inconclusive: 89.1 µM [inhibitor, single point] |
| O=C1NC(=O)N(c2ccccc2F)C(=O)/C1=C/c1ccc(Sc2nc3ccccc3[nH]2)o1 | inconclusive: 28.2 µM [inhibitor, full curve, poor fit] |
| CSc1ncc(/C=C2/C(=O)NC(=O)N(c3ccc(C(C)C)cc3)C2=O)cn1 | inconclusive: 28.2 µM [inhibitor, full curve, poor fit] |
| CN1C(=O)C(=Cc2ccccc2Oc2ccc(Cl)cc2)C(=O)N(C)C1=O | inconclusive: 44.7 µM [inhibitor, partial curve, poor fit] |
| CN(C)c1ccc(C=C2C(=O)NC(=S)NC2=O)cc1[N+](=O)[O-] | inconclusive: 20 µM [inhibitor, full curve, poor fit] |
| CN(CCc1ccc(Cl)c(Cl)c1)[C@@H]1CCCC[C@@H]1N1CCCC1 | inconclusive: 0.0067 µM [inhibitor, full curve, poor fit] |
| O=C1NC(=O)N(c2ccccc2)C(=O)/C1=C/c1ccoc1 | inconclusive: 79.4 µM [inhibitor, partial curve, poor fit] |
| NCCc1ccc(O)cc1 | inactive and inconclusive: 6.7 nM [inhibitor, full curve, poor fit] and inconclusive: 266 nM [inhibitor, partial curve, poor fit] |
| O=c1c2ccccc2nc(CSc2ncnc3nc[nH]c23)n1-c1ccccc1 | inconclusive: 70.8 µM [inhibitor, partial curve, poor fit] |
| CC(=O)NC1N=C(C)N(c2ccccc2)C1=O (configuration not stated) | inconclusive: 50.1 µM [inhibitor, partial curve, poor fit] |
| COc1ccccc1N1C(=O)NC(=O)C2(Cc3cc(C)ccc3N(C)C2)C1=O (configuration not stated) | inactive |
| O=C1CC2(CCCC2)CC(=O)N1CCCCN1CCN(c2ncccn2)CC1 | inconclusive: 13.4 µM [inhibitor, partial curve, poor fit] |
| Cc1ccc(S(=O)(=O)Nc2ccc3c(c2)CC(=O)N([C@H](C)CO)C[C@@H](C)[C@H](CN(C)S(=O)(=O)c2ccccc2)O3)cc1 | inconclusive: 35.5 µM [inhibitor, partial curve, poor fit] |
| COc1ccccc1NC(=O)COC(=O)c1cn(C)c2ccccc12 | inconclusive: 89.1 µM [inhibitor, single point] |
| O=C(Oc1ccc(Cl)cc1)N1CCOCC1 | inconclusive: 35.5 µM [inhibitor, partial curve, poor fit] |
| O=C(NN=Cc1ccc(N(CCCl)CCCl)cc1)c1cccc([N+](=O)[O-])c1 | inconclusive: 50.1 µM [inhibitor, partial curve, poor fit] |

| SMILES | Potency |
| --- | --- |
| Nc1c2c(nc3sc4c(c13)CCCC4)CCCC2 | inactive |
| O=[N+]([O-])NC1=NCN(Cc2ccco2)CN1Cc1ccco1 | inconclusive: 50.1 µM [inhibitor, partial curve, poor fit] |
| CCc1ccc(N2C(=O)NC(=O)C(CCc3ccncc3)(CCc3ccncc3)C2=O)cc1 | inactive |
| Cn1c(O)c(/C=C2\C=c3ccccc3=NC2=O)c(=O)n(C)c1=O | inconclusive: 50.1 µM [inhibitor, partial curve, poor fit] |
| O=C1NC(=O)C(=Cc2cccc(OCCOc3ccccc3)c2)C(=O)N1 | inconclusive: 28.2 µM [inhibitor, full curve, poor fit] |
| C=CCn1c(O)c(C(C)=Nc2ccc(N(C)C)cc2)c(=O)[nH]c1=O | inconclusive: 79.4 µM [inhibitor, partial curve, poor fit] |
| NCCCP(=O)(O)CC1CCCCC1 | inconclusive: 0.006 µM [inhibitor, full curve, poor fit] |
| CCn1ccnc1CN1CCCC(C(=O)c2cc(Cl)ccc2OC)C1 (configuration not stated) | inconclusive: 100 µM [inhibitor, single point] |
| O=C(c1ccccc1)C(CN1CCCC1)c1ccccc1 (configuration not stated) | inconclusive: 31.6 µM [inhibitor, full curve, poor fit] |
| COc1ccc(OCc2n[nH]c(=S)n2Cc2ccco2)cc1 | inconclusive: 35.5 µM [inhibitor, full curve, poor fit] |
| O=C(O)CCn1cc(C=C2C(=O)NC(=S)NC2=O)c(-c2ccccc2)n1 | inconclusive: 31.6 µM [inhibitor, full curve, poor fit] |
| NC(=O)CSc1nc2cc(S(=O)(=O)N3CCOCC3)ccc2o1 | inconclusive: 44.7 µM [inhibitor, partial curve, poor fit] |
| Cc1ccc(C(=O)C2(C)N(O)C(C)C(c3cccs3)=[N+]2[O-])cc1 (configuration not stated) | inactive |
| c1ccc(CN2CCC3(CCc4ccccc43)CC2)cc1 | inconclusive: 2.38 µM [inhibitor, partial curve, poor fit] and inconclusive: 21.2 µM [inhibitor, partial curve, poor fit] |
| O=C1NC(=O)N(c2ccccc2F)C(=O)/C1=C/c1ccc(Oc2ccc([N+](=O)[O-])cn2)cc1 | inconclusive: 35.5 µM [inhibitor, full curve, poor fit] |
| COc1ccc(C2=CC(c3ccc4c(c3)OCO4)c3c(c4ccccc4oc3=O)O2)cc1OC (configuration not stated) | inactive |
| Fc1ccc(C2=CCN(C(c3cccs3)c3nnnn3CCc3ccccc3)CC2)cc1 (configuration not stated) | inconclusive: 79.4 µM [inhibitor, single point] |
| CC1CC(OP(O)(=S)c2ccc(N(C)C)cc2NC(=O)c2cccs2)CC(C)(C)C1 (configuration not stated) | inconclusive: 79.4 µM [inhibitor, partial curve, poor fit] |
| CCN(CC)c1ccc(/C=C/[N+](=O)[O-])cc1 | inconclusive: 50.1 µM [inhibitor, partial curve, poor fit] |
